No constants are given. Whether binding was seen depends on the method and setting. Binding seen in cells or lysates may run through a third protein. Some entries that bind do so weakly or less than the wild type. Where a sequence is shown, tags or fusion partners need not be part of it. One block for each binder: values may come before it.
How the values were obtained:
[1] = target: T1, GST fused to MUPP1 PDZ domain 11 (UniProt Q8VBX6); test: pull-down; GST-MUPP1-PDZ fusion proteins immobilized on glutathione resin (30 µl) mixed with 1 ml E. coli extract with overexpressed CBD or GlyT2Nrcf1 fusion of the CADM1 motif, 1 hr, room temperature; washed 3x; eluted with 20 mM glutathione (pH 8.0) or SDS sample buffer; 12% gel, Coomassie; only the target purified
T1 sequence: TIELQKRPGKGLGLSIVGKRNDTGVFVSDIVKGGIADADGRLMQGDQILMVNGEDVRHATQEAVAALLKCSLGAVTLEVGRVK

[2] = target: T2, GST fused to MUPP1 PDZ domain 4 (UniProt Q8VBX6); test: as above
T2 sequence: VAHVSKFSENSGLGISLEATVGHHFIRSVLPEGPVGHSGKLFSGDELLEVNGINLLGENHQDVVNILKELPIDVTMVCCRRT

[3] = target: T3, GST fused to MUPP1 PDZ domain 7 (UniProt Q8VBX6); test: as above
T3 sequence: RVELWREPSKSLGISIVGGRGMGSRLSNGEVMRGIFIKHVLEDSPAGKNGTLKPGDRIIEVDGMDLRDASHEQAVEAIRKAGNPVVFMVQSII

[4] = target: T4, GST fused to MUPP1 PDZ domain 3 (UniProt Q8VBX6); test: as above
T4 sequence: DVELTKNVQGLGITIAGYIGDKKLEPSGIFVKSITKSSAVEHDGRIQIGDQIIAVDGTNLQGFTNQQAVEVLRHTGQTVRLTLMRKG

[5] = target: T5, GST fused to MUPP1 PDZ domain 2 (UniProt Q8VBX6); test: as above
T5 sequence: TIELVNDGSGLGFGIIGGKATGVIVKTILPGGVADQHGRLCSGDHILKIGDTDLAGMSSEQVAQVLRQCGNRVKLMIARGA

[6] = target: T6, GST fused to MUPP1 PDZ domain 1 (UniProt Q8VBX6); test: as above
T6 sequence: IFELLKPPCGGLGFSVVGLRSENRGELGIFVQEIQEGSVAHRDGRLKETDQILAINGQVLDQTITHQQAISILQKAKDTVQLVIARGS

[7] = target: T7, GST fused to MUPP1 PDZ domain 5 (UniProt Q8VBX6); test: as above
T7 sequence: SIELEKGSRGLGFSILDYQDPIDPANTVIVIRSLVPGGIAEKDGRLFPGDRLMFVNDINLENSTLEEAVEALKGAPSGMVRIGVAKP

[8] = target: T8, GST protein containing the whole cytosolic C‐terminal region of CADM1 (GST‐CADM1C) (mouse) (UniProt Q8R5M8); test: pull-down; fusion tags exchanged: GST-CADM1C with CBD protein fused to MUPP1 PDZ domains, proteins overexpressed in bacteria; only the target purified
T8 sequence: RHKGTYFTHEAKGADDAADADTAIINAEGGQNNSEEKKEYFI

[9] = target: T2, GST fused to MUPP1 PDZ domain 4; test: pull-down; GST-MUPP1 PDZ domain fusions on glutathione resin with Triton X-100 extract of crude mouse brain synaptosomes (25 mM Tris-HCl, 150 mM NaCl, 1 mM EDTA, pH 7.5, 1% Triton X-100), 3 hr at 20°C; eluted with 20 mM glutathione; immunoblot with anti-CADM1; only the target purified
[10] = target: T4, GST fused to MUPP1 PDZ domain 3; test: as above
[11] = target: T9, GST fused to MUPP1 PDZ domain 6 (UniProt Q8VBX6); test: as above
T9 sequence: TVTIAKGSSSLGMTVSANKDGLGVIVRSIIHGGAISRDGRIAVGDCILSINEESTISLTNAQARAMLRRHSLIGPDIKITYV

[12] = target: T5, GST fused to MUPP1 PDZ domain 2; test: as above
[13] = target: T6, GST fused to MUPP1 PDZ domain 1; test: as above
[14] = target: T7, GST fused to MUPP1 PDZ domain 5; test: as above

B1: CBD protein fused in‐frame with MUPP1 PDZ domain 4 (domain or fragment, UniProt Q8VBX6 546-627)
chain: VAHVSKFSENSGLGISLEATVGHHFIRSVLPEGPVGHSGKLFSGDELLEVNGINLLGENHQDVVNILKELPIDVTMVCCRRT
- binding [8]: binds

B2: CBD protein fused in‐frame with MUPP1 PDZ domain 7 (domain or fragment, UniProt Q8VBX6 1139-1231)
chain: RVELWREPSKSLGISIVGGRGMGSRLSNGEVMRGIFIKHVLEDSPAGKNGTLKPGDRIIEVDGMDLRDASHEQAVEAIRKAGNPVVFMVQSII
- binding [8]: binds weakly

B3: CBD protein fused in‐frame with MUPP1 PDZ domain 3 (domain or fragment, UniProt Q8VBX6 378-464)
chain: DVELTKNVQGLGITIAGYIGDKKLEPSGIFVKSITKSSAVEHDGRIQIGDQIIAVDGTNLQGFTNQQAVEVLRHTGQTVRLTLMRKG
- binding [8]: binds

B4: CBD protein fused in‐frame with MUPP1 PDZ domain 2 (domain or fragment, UniProt Q8VBX6 258-338)
chain: TIELVNDGSGLGFGIIGGKATGVIVKTILPGGVADQHGRLCSGDHILKIGDTDLAGMSSEQVAQVLRQCGNRVKLMIARGA
- binding [8]: binds

B5: CBD protein fused in‐frame with MUPP1 PDZ domain 11 (domain or fragment, UniProt Q8VBX6 1710-1792)
chain: TIELQKRPGKGLGLSIVGKRNDTGVFVSDIVKGGIADADGRLMQGDQILMVNGEDVRHATQEAVAALLKCSLGAVTLEVGRVK
- binding [8]: binds weakly

B6: CBD protein fused in‐frame with MUPP1 PDZ domain 5 (domain or fragment, UniProt Q8VBX6 693-779)
chain: SIELEKGSRGLGFSILDYQDPIDPANTVIVIRSLVPGGIAEKDGRLFPGDRLMFVNDINLENSTLEEAVEALKGAPSGMVRIGVAKP
- binding [8]: binds

B7: CBD protein fused in‐frame with MUPP1 PDZ domain 1 (domain or fragment, UniProt Q8VBX6 138-225)
chain: IFELLKPPCGGLGFSVVGLRSENRGELGIFVQEIQEGSVAHRDGRLKETDQILAINGQVLDQTITHQQAISILQKAKDTVQLVIARGS
- binding [8]: binds

Further lines, results first:

- binding [1]: binds weakly
- binding [2]: binds
- binding [3]: binds weakly
- binding [4]: binds
- binding [5]: binds
- binding [6]: binds
- binding [7]: binds
Binder: EKKEYFI [GlyT2Nrcf1‐EKKEYFI fusion protein]

- binding [1]: binds weakly
- binding [2]: binds
- binding [3]: binds weakly
- binding [4]: binds
- binding [5]: binds
- binding [6]: binds
- binding [7]: binds
Binder: EKKEYFI [CBD‐EKKEYFI fusion protein containing the CADM1 PDZ motif (EKKEYFI)]

- binding [9]: no binding
- binding [10]: no binding
- binding [11]: no binding
- binding [12]: binds
- binding [13]: no binding
- binding [14]: no binding
B8: native synaptosomal CADM1 (Triton X‐100 solubilized) (protein, UniProt Q8R5M8 48-456)
chain: QNLFTKDVTVIEGEVATISCQVNKSDDSVIQLLNPNRQTIYFRDFRPLKDSRFQLLNFSSSELKVSLTNVSISDEGRYFCQLYTDPPQESYTTITVLVPPRNLMIDIQKDTAVEGEEIEVNCTAMASKPATTIRWFKGNKELKGKSEVEEWSDMYTVTSQLMLKVHKEDDGVPVICQVEHPAVTGNLQTQRYLEVQYKPQVHIQMTYPLQGLTREGDAFELTCEAIGKPQPVMVTWVRVDDEMPQHAVLSGPNLFINNLNKTDNGTYRCEASNIVGKAHSDYMLYVYDPPTTIPPPTTTTTTTTTTTTTILTIITDTTATTEPAVHDSRAGEEGTIGAVDHAVIGGVVAVVVFAMLCLLIILGRYFARHKGTYFTHEAKGADDAADADTAIINAEGGQNNSEEKKEYFI
